The supplement of paper PMC3334620
The full ranking holds about 33,000 sequences; the median of “E-score (-0.5 to 0.5)” is about -0.012, and the highest 2% start at about 0.27. The list shows a part of the results.

target: T1, Vhr1 (UniProt P40522); assay: PBM E-score (8-mer binding enrichment) (E-score (-0.5 to 0.5)); higher = stronger / more preferred TF binding; most listed sequences are background and not binding sites; conditions: protein concentration: 200 nM; construct: GST-full length
T1 sequence: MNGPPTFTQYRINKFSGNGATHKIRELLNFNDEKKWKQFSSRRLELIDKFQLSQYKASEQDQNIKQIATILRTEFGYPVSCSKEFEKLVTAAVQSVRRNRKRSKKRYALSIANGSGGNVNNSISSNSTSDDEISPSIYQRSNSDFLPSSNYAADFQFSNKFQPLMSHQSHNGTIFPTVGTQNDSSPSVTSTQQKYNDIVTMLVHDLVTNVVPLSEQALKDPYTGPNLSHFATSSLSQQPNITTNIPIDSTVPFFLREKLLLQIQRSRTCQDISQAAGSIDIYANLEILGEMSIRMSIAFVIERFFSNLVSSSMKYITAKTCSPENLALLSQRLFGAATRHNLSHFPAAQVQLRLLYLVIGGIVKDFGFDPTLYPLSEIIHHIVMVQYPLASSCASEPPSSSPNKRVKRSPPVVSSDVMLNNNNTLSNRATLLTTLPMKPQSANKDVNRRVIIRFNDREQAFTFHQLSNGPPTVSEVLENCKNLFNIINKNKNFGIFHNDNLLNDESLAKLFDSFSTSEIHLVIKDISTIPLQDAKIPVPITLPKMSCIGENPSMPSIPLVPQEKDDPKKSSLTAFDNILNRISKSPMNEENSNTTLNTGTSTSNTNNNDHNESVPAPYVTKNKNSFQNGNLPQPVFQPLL
Experimental: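 Universal 'all 10-mer' protein binding microarrays (Agilent AMADID 015681) probed with GST-tagged S. cerevisiae TFs (full-length or DBD) made by in vitro transcription/translation (PURExpress), about 100-200 nM. Bound TF was detected with fluorescent anti-GST. Each ungapped 8-mer (which stands for itself and its reverse complement) is scored by the PBM enrichment score (E-score), a modified Wilcoxon-Mann-Whitney statistic from -0.5 to +0.5, computed with the Universal PBM Analysis Suite. Scale: above 0.35 generally sequence-specific binding.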

Row | Sequence | PBM E-score
1 | CGTAAACG | -0.276
2 | CTTGGGAC | -0.0152
3 | CCGCAATC | 0.0238
4 | AGAGTCTC | 0.191
5 | CCTTAACA | -0.264
6 | AGGGGATA | 0.0949
7 | ATTTAGTG | 0.165
8 | GCATTTGA | 0.0275
9 | AGTTCCGA | 0.136
10 | ACTTCGTC | 0.0428
11 | ACGGGGTA | -0.0475
12 | CCGACTTC | -0.223
13 | TGCATAAA | 0.0296
14 | GGTTGTCA | 0.0912
15 | AGGACCTC | -0.00731
16 | AAGACTCT | 0.209
17 | GAAACGTA | -0.0795
18 | CCGAGGAC | -0.171
19 | GAACAGCA | 0.0177
20 | ACAGTCGT | 0.0666
21 | GTGGCGAA | -0.0714
22 | ATGACAAC | 0.0379

Row | Sequence | PBM E-score
23 | GCTCAACA | -0.157
24 | AAGCGACT | 0.127
25 | AAAATTCC | -0.302
26 | CACGAAGC | 0.0674
27 | ACTTGCCT | -0.0226
28 | GTTTCCCA | 0.129
29 | GATGCGAC | 0.102
30 | CGCGGCAC | 0.0304
31 | GCAAACCC | -0.0203
32 | GTAAGGGA | -0.13
33 | AAACGGGT | -0.0906
34 | CTTAATCA | 0.214
35 | AACGTTGC | 0.0114
36 | AGCAGCGA | 0.0486
37 | ACGACATA | -0.0639
38 | CTAGGACA | -0.0587
39 | ACAATACT | 0.167
40 | AAGCTTCA | -0.158
41 | CCTATAGG | -0.243
42 | CACCGCCC | 0.293
43 | CTTGCTGA | -0.0484
44 | CGCGAGTC | 0.355

Row | Sequence | PBM E-score
45 | CGAGTGTA | -0.0117
46 | ACACGGAT | 0.287
47 | CTAGCCCA | -0.0668
48 | AGTTCAGA | -0.232
49 | CGCTCACA | 0.137
50 | AGGACCTG | -0.1
51 | ATCAGCTA | 0.0387
52 | AGGATGTC | 0.107
53 | GAAACATA | 0.2
54 | CGATGACA | 0.0847
55 | CTGGCGGA | -0.08
56 | GCGCACTA | -0.0419
57 | GCGCGCCC | -0.0677
58 | AAGTGAAA | -0.0891
59 | CTACAACA | -0.0223
60 | ACTATTGC | 0.0584
61 | ATAGACGA | 0.0089
62 | CCATGAAG | 0.0475
63 | CCGCTCAC | -0.0465
64 | ATCCTGCC | -0.0296
65 | ACGTTGGG | 0.057
66 | GCTTACAC | 0.101

Row | Sequence | PBM E-score
67 | GGAACAAC | -0.0355
68 | TCAGGAGA | 0.0747
69 | CCGTAACG | -0.131
70 | GAGGGAAC | -0.11
71 | GAGGTAAA | -0.0937
72 | ACGGTATA | -0.0661
73 | GGAGAGCC | -0.161
74 | AACGTGTC | -0.101
75 | GTGCGGCA | 0.0419
76 | ACAATAGC | -0.0489
77 | CCGTCTGA | -0.0642
78 | CCGTTTGA | -0.0968
79 | ACTTAAGA | -0.0666
80 | CGCCTTGC | 0.00127
81 | TGACGTAA | -0.212
82 | AGGATTTG | -0.0325
83 | CTCGTCAG | 0.0896
84 | CCGCTCTC | -0.153
85 | ACATGCCA | 0.0538
86 | AATAATTC | -0.0658
